# From the supplement of paper PMC8728848
# The list shows a part of the results.
# B1: StcE (Escherichia coli), O82882.2 (protein)
# chain: ADNNSAIYFNTSQPINDLQGSLAAEVKFAQSQILPAHPKEGDSQPHLTSLRKSLLLVRPVKADDKTPVQVEARDDNNKILGTLTLYPPSSLPDTIYHLDGVPEGGIDFTPHNGTKKIINTVAEVNKLSDASGSSIHSHLTNNALVEIHTANGRWVRDIYLPQGPDLEGKMVRFVSSAGYSSTVFYGDRKVTLSVGNTLLFKYVNGQWFRSGELENNRITYAQHIWSAELPAHWIVPGLNLVIKQGNLSGRLNDIKIGAPGELLLHTIDIGMLTTPRDRFDFAKDKEAHREYFQTIPVSRMIVNNYAPLHLKEVMLPTGELLTDMDPGNGGWHSGTMRQRIGKELVSHGIDNANYGLNSTAGLGENSHPYVVAQLAAHNSRGNYANGIQVHGGSGGGGIVTLDSTLGNEFSHEVGHNYGLGHYVDGFKGSVHRSAENNNSTWGWDGDKKRFIPNFYPSQTNEKSCLNNQCQEPFDGHKFGFDAMAGGSPFSAANRFTMYTPNSSAIIQRFFENKAVFDSRSSTGFSKWNADTQEMEPYEHTIDRAEQITASVNELSESKMAELMAEYAVVKVHMWNGNWTRNIYIPTASADNRGSILTINHEAGYNSYLFINGDEKVVSQGYKKSFVSDGQFWKERDVVDTREARKPEQFGVPVTTLVGYYDPEGTLSSYIYPAMYGAYGFTYSDDSQNLSDNDCQLQVDTKEGQLRFRLANHRANNTVMNKFHINVPTESQPTQATLVCNNKILDTKSLTPAPEGLTYTVNGQALPAKENEGCIVSVNSGKRYCLPVGQRSGYSLPDWIVGQEVYVDSGAKAKVLLSDWDNLSYNRIGEFVGNVNPADMKKVKAWNGQYLDFSKPRSMRVVYK
# Experiments:
# Experiment in all cases: glycan array binding signal (z-score within array); higher = stronger binding
# Conditions in all cases: glycan notation: IUPAC condensed, linker removed
# Fuc(a1-2)Gal = target: Fuc(a1-2)Gal
# Summary of the method: (§1)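 From the Consortium for Functional Glycomics database, 3228 arrays were curated, keeping only those whose protein sequence was available. Binding is given as a within-array Z-score averaged across arrays sharing a protein sequence and across linkers. Negative Z-scores can be read as non-binding.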
# Fuc(a1-2)Gal(b1-3)GalNAc = target: Fuc(a1-2)Gal(b1-3)GalNAc
# Summary of the method: as §1
# [1] = target: Fuc(a1-2)Gal(b1-3)GalNAc(a1-3)[Fuc(a1-2)]Gal(b1-4)Glc
# Summary of the method: as §1
# [2] = target: Fuc(a1-2)Gal(b1-3)GalNAc(a1-3)[Fuc(a1-2)]Gal(b1-4)GlcNAc
# Summary of the method: as §1
# [3] = target: Fuc(a1-2)Gal(b1-3)GalNAc(b1-3)Gal
# Summary of the method: as §1
# [4] = target: Fuc(a1-2)Gal(b1-3)GalNAc(b1-3)Gal(a1-4)Gal(b1-4)Glc
# Summary of the method: as §1
# [5] = target: Fuc(a1-2)Gal(b1-3)GalNAc(b1-4)[Neu5Ac(a2-3)]Gal(b1-4)Glc
# Summary of the method: as §1
# Fuc(a1-2)Gal(b1-3)GlcNAc = target: Fuc(a1-2)Gal(b1-3)GlcNAc
# Summary of the method: as §1
# [6] = target: Fuc(a1-2)Gal(b1-3)GlcNAc(b1-2)Man(a1-3)[Fuc(a1-2)Gal(b1-3)GlcNAc(b1-2)Man(a1-6)]Man(b1-4)GlcNAc(b1-4)GlcNAc
# Summary of the method: as §1
# [7] = target: Fuc(a1-2)Gal(b1-3)GlcNAc(b1-2)Man(a1-3)[Fuc(a1-2)Gal(b1-3)GlcNAc(b1-2)Man(a1-6)]Man(b1-4)GlcNAc(b1-4)[Fuc(a1-6)]GlcNAc
# Summary of the method: as §1
# [8] = target: Fuc(a1-2)Gal(b1-3)GlcNAc(b1-3)Gal(b1-4)Glc
# Summary of the method: as §1
# [9] = target: Fuc(a1-2)Gal(b1-3)GlcNAc(b1-3)GalNAc
# Summary of the method: as §1
# [10] = target: Fuc(a1-2)Gal(b1-3)GlcNAc(b1-3)[Fuc(a1-2)Gal(b1-3)GlcNAc(b1-6)]GalNAc
# Summary of the method: as §1
# [11] = target: Fuc(a1-2)Gal(b1-3)GlcNAc(b1-3)[Fuc(a1-3)[Gal(b1-4)]GlcNAc(b1-6)]Gal(b1-4)Glc
# Summary of the method: as §1
# [12] = target: Fuc(a1-2)Gal(b1-3)GlcNAc(b1-3)[Gal(b1-4)GlcNAc(b1-6)]Gal(b1-4)Glc
# Summary of the method: as §1
# [13] = target: Fuc(a1-2)Gal(b1-3)GlcNAc(b1-3)[Neu5Ac(a2-6)Gal(b1-4)GlcNAc(b1-6)]Gal(b1-4)Glc
# Summary of the method: as §1
# [14] = target: Fuc(a1-2)Gal(b1-3)GlcNAc6S
# Summary of the method: as §1
# [15] = target: Fuc(a1-2)Gal(b1-3)[Fuc(a1-4)]GlcNAc
# Summary of the method: as §1
# [16] = target: Fuc(a1-2)Gal(b1-3)[Fuc(a1-4)]GlcNAc(b1-2)Man(a1-3)[Fuc(a1-2)Gal(b1-3)[Fuc(a1-4)]GlcNAc(b1-2)Man(a1-6)]Man(b1-4)GlcNAc(b1-4)GlcNAc
# Summary of the method: as §1
# [17] = target: Fuc(a1-2)Gal(b1-3)[Fuc(a1-4)]GlcNAc(b1-2)Man(a1-6)[Fuc(a1-2)Gal(b1-3)[Fuc(a1-4)]GlcNAc(b1-2)Man(a1-3)]Man(b1-4)GlcNAc(b1-4)[Fuc(a1-6)]GlcNAc
# Summary of the method: as §1
# [18] = target: Fuc(a1-2)Gal(b1-3)[Fuc(a1-4)]GlcNAc(b1-3)[Fuc(a1-3)[Gal(b1-4)]GlcNAc(b1-6)]Gal(b1-4)Glc
# Summary of the method: as §1
# [19] = target: Fuc(a1-2)Gal(b1-3)[Fuc(a1-4)]GlcNAc(b1-3)[Gal(b1-4)GlcNAc(b1-6)]Gal(b1-4)Glc
# Summary of the method: as §1
# Fuc(a1-2)Gal(b1-4)Glc = target: Fuc(a1-2)Gal(b1-4)Glc
# Summary of the method: as §1
# Fuc(a1-2)Gal(b1-4)Glc6S = target: Fuc(a1-2)Gal(b1-4)Glc6S
# Summary of the method: as §1
# Fuc(a1-2)Gal(b1-4)GlcNAc = target: Fuc(a1-2)Gal(b1-4)GlcNAc
# Summary of the method: as §1
# [20] = target: Fuc(a1-2)Gal(b1-4)GlcNAc(b1-2)Man
# Summary of the method: as §1
# [21] = target: Fuc(a1-2)Gal(b1-4)GlcNAc(b1-2)Man(a1-3)[Fuc(a1-2)Gal(b1-4)GlcNAc(b1-2)Man(a1-6)]Man(b1-4)GlcNAc(b1-4)GlcNAc
# Summary of the method: as §1
# [22] = target: Fuc(a1-2)Gal(b1-4)GlcNAc(b1-2)Man(a1-3)[Fuc(a1-2)Gal(b1-4)GlcNAc(b1-2)Man(a1-6)]Man(b1-4)GlcNAc(b1-4)[Fuc(a1-6)]GlcNAc
# Summary of the method: as §1
# [23] = target: Fuc(a1-2)Gal(b1-4)GlcNAc(b1-2)[Fuc(a1-2)Gal(b1-4)GlcNAc(b1-4)]Man(a1-3)[Fuc(a1-2)Gal(b1-4)GlcNAc(b1-2)Man(a1-6)]Man(b1-4)GlcNAc(b1-4)GlcNAc
# Summary of the method: as §1
# [24] = target: Fuc(a1-2)Gal(b1-4)GlcNAc(b1-3)Gal(b1-4)GlcNAc
# Summary of the method: as §1
binder,measurement,setting,value
B1,glycan array binding signal (z-score),Fuc(a1-2)Gal,-0.233
same,glycan array binding signal (z-score),Fuc(a1-2)Gal(b1-3)GalNAc,-0.144
same,glycan array binding signal (z-score),[1],-0.142
same,glycan array binding signal (z-score),[2],-0.155
same,glycan array binding signal (z-score),[3],-0.591
same,glycan array binding signal (z-score),[4],-0.588
same,glycan array binding signal (z-score),[5],0.19
same,glycan array binding signal (z-score),Fuc(a1-2)Gal(b1-3)GlcNAc,-0.202
same,glycan array binding signal (z-score),[6],1.02
same,glycan array binding signal (z-score),[7],1.21
same,glycan array binding signal (z-score),[8],-0.144
same,glycan array binding signal (z-score),[9],0.003
same,glycan array binding signal (z-score),[10],2.38
same,glycan array binding signal (z-score),[11],-0.115
same,glycan array binding signal (z-score),[12],-0.139
same,glycan array binding signal (z-score),[13],-0.161
same,glycan array binding signal (z-score),[14],0.19
same,glycan array binding signal (z-score),[15],-0.082
same,glycan array binding signal (z-score),[16],-0.163
same,glycan array binding signal (z-score),[17],-0.1
same,glycan array binding signal (z-score),[18],-0.147
same,glycan array binding signal (z-score),[19],-0.167
same,glycan array binding signal (z-score),Fuc(a1-2)Gal(b1-4)Glc,-0.065
same,glycan array binding signal (z-score),Fuc(a1-2)Gal(b1-4)Glc6S,-0.155
same,glycan array binding signal (z-score),Fuc(a1-2)Gal(b1-4)GlcNAc,0.056
same,glycan array binding signal (z-score),[20],-0.132
same,glycan array binding signal (z-score),[21],0.128
same,glycan array binding signal (z-score),[22],1.14
same,glycan array binding signal (z-score),[23],-0.002
same,glycan array binding signal (z-score),[24],-0.153
